# About 200 (0.44%) of roughly 45,000 compounds were called active. Not shown: some 7% with an inconclusive outcome. The call rests on the fitted dose curve; in most records, active means well fitted activation curve with a large enough effect; inconclusive means small, poorly fitted or top-dose-only effect; inactive means no such curve, though single readings can be large or run the other way. The list shows a part of the results.
# Test: qHTS of TDP-43 Inhibitors: NCGC Sytravon Library Screen; further: 0% is about no effect; nearly all actives have a fitted effect of over 55% in size
# Conditions: yeast TDP-43 toxicity rescue, BacTiter-Glo growth, 24 h; series mostly up to 46.1 µM; growth rescue (activation): at the top concentration
# From the text: The goal of this project is to identify new chemical probes capable of reversing the toxicity associated with TDP-43 which is associated with frontotemporal lobar degeneration and amyotrophic lateral sclerosis. These compounds will provide a complementary approach to deciphering the tangled mechanisms of toxicity and protection that we have uncovered through genome-wide genetic screens and are beginning to uncover in a large-scale proteomics analysis with mass spectroscopy. To this end, a miniaturized assay was developed to be screened against the Molecular Libraries Small Molecule Repository (MLSMR) to discover TDP-43 inhibitors. Please note that in the set-up this yeast-based assay compounds that inhibit as TDP-43, have a read-out as activators. NIH Chemical Genomics Center [NCGC] NIH Molecular Libraries Probe Centers Network [MLPCN] Assay Submitter (PI): Susan Lindquist, Whitehead Institute/MIT MLPCN Grant: R21 NS060957
# Dispense 2.5 microL yeast galactose medium per 1536-well plate, pin compound, dispense 2.5 microL TDP-43 expressing yeast in galactose medium at OD600=0.02 (pregrown in raffinose medium to mid-log phase) per well, incubate for 24 hr at 30 deg C, and cell growth will be measured using 5 microL of Bactiter/Glo reagent to entire plate and read using Luminescence Protocol in ViewLux.
SMILES,growth rescue (activation),Potency
CCc1c(C)nc2ncnn2c1N1CCN(S(=O)(=O)c2ccc(OC)cc2)CC1,inactive: -7.65%,
COc1cccc(CN2CC(C(=O)N3CCN(C(C)C)CC3)CCC2=O)c1 (stereo unspecified),inactive: -9.22%,
Cc1ccc(NC(=O)CCn2cnc3ccccc3c2=O)cc1,inactive: 14%,
COc1ccc(C(=O)NNC(=O)CSc2nnc(COc3ccccc3OC)n2C)cc1,inactive: -13.4%,
CC(=O)c1ccc(OCCCC(=O)Nc2cccc(S(=O)(=O)N3CCCCCC3)c2)cc1,inactive: 14.2%,
O=C(Nc1ccc2c(c1)OCCO2)c1ccc(Br)cc1,inactive: 24.2%,
OCCC1CN(Cc2nc3ccccc3[nH]2)CCN1C1CCCC1 (stereo unspecified),inactive: 0.904%,
COCCOc1ccc(C(F)(F)F)cc1NC(=O)COC(=O)c1ccc(N2CCCC2=O)cc1,inactive: 19.7%,
Cc1ccc(N(C)S(=O)(=O)c2cccc(C(=O)Oc3ccc4c(C)cc(=O)oc4c3)c2)cc1,inactive: 5.77%,
CC(=O)c1cccc(NC(=O)CCn2c(=S)oc3ccccc32)c1,inactive: 10.6%,
CCN(CC)S(=O)(=O)c1cc(NS(=O)(=O)c2cccc(C(=O)O)c2)ccc1C,inactive: 2.82%,
COc1cc(C(=O)NNC(=S)NC(=O)c2ccc3c(c2)OCO3)cc(OC)c1OC,inactive: -6.23%,
CN(C)S(=O)(=O)c1ccc(C(=O)NCC(C)(C)CN=C2NS(=O)(=O)c3ccccc32)cc1,inactive: -9.27%,
COc1cccc(C(c2nnnn2Cc2ccco2)N2CCN(Cc3ccccc3)CC2)c1OC (stereo unspecified),inactive: 4.47%,
Cc1ccc(C(c2nnnn2C2CCCCC2)N2CCc3ccccc32)cc1 (stereo unspecified),inactive: -8.97%,
CCCC(=O)Nc1ccc(Cl)c(NC(=O)c2ccc([N+](=O)[O-])cc2Cl)c1,inactive: 30.4%,
CN(Cc1ccccc1)C(=O)c1nc2ccccn2c1CNCCn1cccn1,inactive: 2.79%,
NC(=O)COC(=O)c1cc(-c2ccco2)nc2ccccc12,inactive: 7.1%,
CCCOc1ccc(/C=N/Nc2ccccc2[N+](=O)[O-])c(OCCC)c1,inactive: -8.02%,
COc1ccc(C(=O)CC(=O)C(=O)Nc2ccccc2Cl)cc1,inactive: -16.8%,
Cc1cc(N2C(=O)C(O)=C(C(=O)c3cc4ccccc4o3)C2c2cccc(Cl)c2)no1 (stereo unspecified),inactive: 4.65%,
COc1ccc(Cn2c(=O)[nH]c3cc(C(=O)N4CCN(c5ccccn5)CC4)ccc3c2=O)cc1,inactive: 4.52%,

SMILES,growth rescue (activation),Potency
CCc1c(C)nc2nncn2c1NCc1ccc(Cl)cc1,inactive: 33.6%,
CCCCC(=O)N(C)c1c(CC)nc2c(OCc3ccccc3C)cccn12,inactive: 7.96%,
Cc1cccc(NC(=S)N2CCN(c3ccc(F)cc3)CC2)c1,inactive: 16.3%,
CCCC(c1nnnn1Cc1ccc(OC)cc1)N1CCN(C(=O)c2ccco2)CC1 (stereo unspecified),inactive: -8.39%,
COC(=O)c1ccc(CN2C(=O)c3ccccc3C2=O)o1,inactive: 17%,
COc1ccc(/C=N/NC(=O)c2cccc(NC(=O)c3ccccc3Cl)c2)cc1,inactive: 11%,
COc1ccc(C(=O)C2CCCN(Cc3ccc(Sc4nncn4C)o3)C2)cc1F (stereo unspecified),inactive: 4.06%,
Cc1ccc(S(=O)(=O)CCc2nnc(NC(=O)c3ccco3)s2)cc1,inactive: -1.02%,
O=C(O)COc1ccc(-c2nc(-c3ccccc3)c(-c3ccccc3)[nH]2)cc1,inactive: 11.9%,
CCCCn1c(=O)[nH]c(=O)c2c1nc(-c1ccc(C(F)(F)F)cc1)n2C,inactive: 9.24%,
COc1cccc(OC)c1OCCCOc1ccc([N+](=O)[O-])cc1Cl,inactive: 28.4%,
CS(=O)(=O)N1CCN(Cc2ccc([N+](=O)[O-])cc2)CC1,inactive: -5.52%,
Cc1ccc(Nc2nc(CSc3nnc(-c4cccnc4)n3-c3ccccc3C)cs2)cc1,inactive: 14.5%,
CCCCN(CC)CCNC(=O)c1cc2c(=O)n(CC)c3ccccc3c2s1,inactive: 1.67%,
COc1ccc(NC(=O)c2ccco2)cc1NC(=O)c1ccccc1F,inactive: -25.4%,
Cc1ccc(OCC(=O)Nc2ccc(S(=O)(=O)N3CCCCC3)cc2)c([N+](=O)[O-])n1,inactive: 1.62%,
Cc1cccc2c1cnn2C(=O)Nc1ccccc1Br,inactive: 7.03%,
O=C1CC(c2ccccc2)CC(=O)C1=CN1CCCC1 (stereo unspecified),inactive: -26.8%,
CCN(Cc1ccccc1)c1ccc(/C=N/NC(=S)NC(C)C)cc1,inactive: 26.1%,
Cc1nc(SCCOc2ccccc2F)[nH]c(=O)c1Cc1ccccc1,,inactive
O=C(Nc1nc2c(s1)CCCC2)c1cccc(S(=O)(=O)N2CCCc3ccccc32)c1,inactive: -11.9%,
O=C(CSCc1ccccc1)N/N=C/c1cc2c(cc1Br)OCO2,inactive: -2.98%,

SMILES,growth rescue (activation),Potency
C=CCNc1nc(Cl)nc(Nc2ccc(OC)cc2OC)n1,inactive: 11.8%,
O=C(COC(=O)c1cc(S(=O)(=O)N2CCOCC2)c(Cl)cc1Cl)NCc1ccco1,inactive: 16.4%,
COc1ccc(NC(=O)c2cc(-c3ccc(C)c(C)c3O)n[nH]2)cc1Cl,inactive: 13.6%,
CCN(Cc1ccncc1)C(=O)CCc1nnc(CCc2ccc(OC)cc2)o1,inactive: 1.54%,
O=C(CCN1C(=O)c2cccc3cccc(c23)C1=O)NC1CCS(=O)(=O)C1 (stereo unspecified),inactive: 29.2%,
COc1cccc(CC(=O)Nc2cccc3ccccc23)c1,inactive: 16.2%,
Cc1c(C)c2ccc(Oc3ccc([N+](=O)[O-])cc3C(F)(F)F)c(C)c2oc1=O,inactive: 32.3%,
CC(=O)c1cccc(NC(=S)NC(=O)c2ccccc2Cl)c1,inactive: -4.16%,
O=C1CC(N2CCN(c3ccccc3O)CC2)C(=O)N1Cc1ccccc1 (stereo unspecified),inactive: -11.5%,
COCCNC(=O)C(c1ccc(O)cc1)N(Cc1ccco1)C(=O)CCC(=O)Nc1ccccn1 (stereo unspecified),inactive: -0.119%,
CCOC(=O)C1(C)CCN1C(=O)c1cccc(C(F)(F)F)c1 (stereo unspecified),inactive: 16.8%,
CCCCCCCCCCOC(=O)Cn1c(COc2ccc(OC)cc2)[n+](C)c2ccccc21,inactive: -88.5%,
O=C(Nc1ccncc1)C1CC(=O)N(c2ccccc2)C1 (stereo unspecified),inactive: 4.12%,
COc1ccc(N2CCN(C(=O)c3ccccc3NC(=O)c3ccccc3)CC2)cc1,inactive: 25.8%,
CCn1ncc(CN2CCCC(CNC(=O)c3ccc(F)cc3)C2)c1C (stereo unspecified),inactive: 7.02%,
O=C(c1cccc(F)c1)N1CCN(c2ccc([N+](=O)[O-])c(N3CCOCC3)c2)CC1,inactive: 16.1%,
CN(C)c1oc(/C=C/c2cccs2)nc1S(=O)(=O)c1ccccc1,inactive: 11%,
CCc1ccc(-c2nn(-c3ccccc3)cc2CSC(=N)N)cc1,inactive: -9.37%,
COc1ccc(OC)c(NC(=O)CSc2nc3[nH]c(=O)[nH]c(=O)c3s2)c1,inactive: 14.6%,
COc1ccc2nc(/C(C#N)=C\c3ccc(C(=O)O)cc3)[nH]c2c1,inactive: 14.5%,
CC(=O)Nc1nc(-c2ccc([N+](=O)[O-])cc2)cs1,inactive: 5.99%,
Cn1c(O)c(N=NC(=O)c2cccc(S(=O)(=O)N3CCCCC3)c2)c2ccccc21,inactive: 11.7%,

# — PubChem BioAssay AID1347073 (National Center for Advancing Translational Sciences (NCATS), 2019)
